Experimental data taken from a collection of fitness landscapes (doi:10.1016/j.celrep.2020.107928).
Whole data set: some 81,000 sequences, median “one-hybrid fitness for binding NBS DNA” near -0.1, cut for the highest 2% near 0.36. Some of the results follow.

B1: Caulobacter ParB omega fusion; a variant is named by its letters at X, in order, B8GW30 (parent)
chain: MESVVVGEPGMSEGRRGLGRGLSALLGEVDAAPAQAPGEQLGGSREAPIEILQRNPDQPRRTFREEDLEDLSNSIREKGVLQPILVRPSPDTAGEYQIVAGERAWRAAQRAGLKTVPIMVRELDDLAVLEIGIIENVQRADLNVLEEALSYKVLMEKFERTQENIAQTIGKSXSHVANXMRLLXLPDEVQSYLVSGELTAXHARAIAAAADPVALAKQIIEGGLSVRETEALARKAPNLSAGKSKGGRPPRVKDTDTQALESDLSSVLGLDVSIDHRGSTGTLTITYATLEQLDDLCNRLTRGI

Variants of: B1
Test: one-hybrid fitness for binding NBS DNA (the Noc-binding site; scaled: cognate 1, non-cognate 0); higher = stronger binding
Conditions: with NBS DNA site
Procedure, shortened: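 Pre- and post-selection plasmids were Illumina-sequenced, three replicate libraries were pooled, and any variant with under 10 reads was removed. The libraries were Caulobacter ParB with four specificity codons randomised, selected in E. coli USO through a HIS3 reporter whose site is 19 bp from the promoter. Cells grew 48 hours at 37°C on M9 without histidine, with 0.1 mM IPTG and 5 mM 3-AT. Fitness is the log change in variant-to-wild-type read ratio, rescaled against cognate and non-cognate.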

Row | Variant | one-hybrid fitness for binding NBS DNA
1 | YKHR | ≤ 0.2
2 | PQQC | ≤ 0.2
3 | QTHS | 0.585
4 | LPSM | ≤ 0.2
5 | PGDC | ≤ 0.2
6 | MRGR | ≤ 0.2
7 | MDDM | ≤ 0.2
8 | QMNA | 0.276
9 | NQAS | ≤ 0.2
10 | DTSV | ≤ 0.2
11 | TFAY | ≤ 0.2
12 | PYME | ≤ 0.2
13 | NYGC | ≤ 0.2
14 | TVSK | ≤ 0.2
15 | GEDG | ≤ 0.2
16 | WRAW | ≤ 0.2
17 | TPPC | ≤ 0.2
18 | PCQW | ≤ 0.2
19 | MNWI | ≤ 0.2
20 | LVRC | ≤ 0.2
21 | AMYV | ≤ 0.2
22 | FKHG | ≤ 0.2
23 | MDCV | ≤ 0.2
24 | KCSG | ≤ 0.2
25 | LTVT | ≤ 0.2

Row | Variant | one-hybrid fitness for binding NBS DNA
26 | LDNT | ≤ 0.2
27 | YLRT | ≤ 0.2
28 | HRGT | ≤ 0.2
29 | NMKV | ≤ 0.2
30 | QTFG | ≤ 0.2
31 | AIPM | ≤ 0.2
32 | VPHM | ≤ 0.2
33 | NYWL | ≤ 0.2
34 | NWLR | ≤ 0.2
35 | CNGN | ≤ 0.2
36 | YTHC | ≤ 0.2
37 | MKPT | ≤ 0.2
38 | MDMS | ≤ 0.2
39 | ELHC | ≤ 0.2
40 | KYNS | ≤ 0.2
41 | AEVV | ≤ 0.2
42 | QAYP | ≤ 0.2
43 | SNTL | ≤ 0.2
44 | QHLA | ≤ 0.2
45 | HPWG | ≤ 0.2
46 | SNSG | ≤ 0.2
47 | QYIY | ≤ 0.2
48 | VIIE | ≤ 0.2
49 | TDQS | ≤ 0.2
50 | GAEY | ≤ 0.2

Row | Variant | one-hybrid fitness for binding NBS DNA
51 | RING | ≤ 0.2
52 | VIII | ≤ 0.2
53 | VHKS | ≤ 0.2
54 | FRFT | ≤ 0.2
55 | RYLE | ≤ 0.2
56 | IAED | ≤ 0.2
57 | FSTY | ≤ 0.2
58 | NMIS | ≤ 0.2
59 | FLTF | ≤ 0.2
60 | ADRL | ≤ 0.2
61 | PVVC | ≤ 0.2
62 | CSHG | ≤ 0.2
63 | PDFY | ≤ 0.2
64 | GVNQ | ≤ 0.2
65 | ARLG | ≤ 0.2
66 | RFTI | ≤ 0.2
67 | KVHE | ≤ 0.2
68 | ESET | ≤ 0.2
69 | GIEK | ≤ 0.2
70 | CVLD | ≤ 0.2
71 | KTRF | ≤ 0.2
72 | HRES | ≤ 0.2
73 | VNQG | ≤ 0.2
74 | AMHG | ≤ 0.2
75 | AVMS | ≤ 0.2

Row | Variant | one-hybrid fitness for binding NBS DNA
76 | MFVR | ≤ 0.2
77 | PKDM | ≤ 0.2
78 | VYST | ≤ 0.2
79 | CLKC | ≤ 0.2
80 | ANPQ | ≤ 0.2
81 | PTWT | ≤ 0.2
82 | TVTA | 0.309
83 | RWEI | ≤ 0.2
84 | SRPQ | ≤ 0.2
85 | NLEI | ≤ 0.2
86 | MQLT | ≤ 0.2
87 | SVPV | ≤ 0.2
88 | NFPD | ≤ 0.2
89 | SDLC | ≤ 0.2
90 | EGAR | ≤ 0.2
91 | AYYW | ≤ 0.2
92 | HIIG | ≤ 0.2
93 | PREY | ≤ 0.2
94 | MPKS | ≤ 0.2
95 | RHMH | ≤ 0.2
96 | TALC | ≤ 0.2
97 | RYKM | 0.206
